# Reference: PubChem BioAssay AID1030 (National Center for Advancing Translational Sciences (NCATS), 2008)
# Out of some 220,000 compounds screened, about 16,000 (7.3%) were called active. The inconclusive results got no clear call from the source; some entries with a clear call stand among them for comparison. The call rests on the fitted dose curve; in most records, active means well fitted inhibition curve with a large enough effect (not every such curve was filed as active); inconclusive means small, poorly fitted or top-dose-only effect, or another doubt; inactive means no such curve, though single readings can be large or run the other way. Potencies of inconclusive entries are left out as doubtful fits.
# Biological target: Aldehyde dehydrogenase 1A1 (Homo sapiens) (UniProt P00352)
# Test: qHTS Assay for Inhibitors of Aldehyde Dehydrogenase 1 (ALDH1A1);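 on activity, negative = inhibition: plate controls were no enzyme wells and a reference inhibitor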
# Conditions: Purified ALDH1A1, NADH fluorescence, propionaldehyde substrate; series mostly up to 75.3 µM; activity, negative = inhibition: at the top concentration
# Potency means the concentration at half of the fitted maximal effect; tags describe the fitted curve by direction and shape.
# Sequence of UniProt P00352 (P00352 whole entry, looked up): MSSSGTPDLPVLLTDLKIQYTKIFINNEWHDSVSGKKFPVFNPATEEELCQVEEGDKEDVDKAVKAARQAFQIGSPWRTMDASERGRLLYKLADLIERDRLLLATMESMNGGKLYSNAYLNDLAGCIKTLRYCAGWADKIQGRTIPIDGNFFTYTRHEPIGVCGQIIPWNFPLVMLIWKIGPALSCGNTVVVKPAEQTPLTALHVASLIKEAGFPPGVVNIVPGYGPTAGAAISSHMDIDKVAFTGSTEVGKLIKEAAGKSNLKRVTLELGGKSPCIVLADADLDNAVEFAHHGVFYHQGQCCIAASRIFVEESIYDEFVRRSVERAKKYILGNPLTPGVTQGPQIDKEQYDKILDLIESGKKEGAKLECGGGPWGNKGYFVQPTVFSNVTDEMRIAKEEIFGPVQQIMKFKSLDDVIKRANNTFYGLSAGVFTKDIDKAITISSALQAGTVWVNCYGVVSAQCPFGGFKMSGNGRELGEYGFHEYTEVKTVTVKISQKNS
Structure (SMILES),Potency,"activity, negative = inhibition"
CC12C=C(/C=C/CCc3ccco3)C(C)(C1)C(CCc1ccco1)CC2=O (stereo not given),active: 3.98 µM,
CC(=O)Nc1c(C(=O)N2CCN(c3ccccn3)CC2)cnn1-c1ccc(C)cc1,"inconclusive [inhibitor, single point]",
CN1/C(=N\O)c2cccc3cccc1c23,"inconclusive [inhibitor, partial curve]",
CSc1cc(-c2ccccc2)n(C)c(=O)c1C#N,"inconclusive [inhibitor, partial curve]",
O=C(CC1SC(=Nc2ccccc2)N(Cc2ccccn2)C1=O)Nc1cccc(Cl)c1 (stereo not given),active: 20 µM,
COc1cc(-c2ccc(N=C=O)c(OC)c2)ccc1N=C=O,"inconclusive [inhibitor, partial curve]",
Cc1cc(N2CCN(C)CC2)n2cc(-c3ccc(F)cc3)nc2n1,"inconclusive [inhibitor, partial curve]",
O=C(c1ccc2c(c1)OCO2)N1CCN(c2ccccc2F)CC1,"inconclusive [inhibitor, single point]",
Cc1ccc(/C=N/n2cnc3sc4c(c3c2=O)CCCC4)o1,"inconclusive [inhibitor, single point]",
CC1=C(C)CS(=O)N(S(=O)(=O)c2ccc(Cl)cc2)C1 (stereo not given),"inconclusive [inhibitor, single point]",
CCn1c2ccccc2c2cc(NC(=O)CSc3nnnn3-c3ccccc3)ccc21,,inactive: -8.49%
O=C(NCc1ccco1)/C(=C/c1ccc(C(F)(F)F)cc1)c1nc2ccccc2[nH]1,"inconclusive [inhibitor, single point]",
CCCCCOC(=O)Cn1c(=O)oc2ccccc21,,inactive: 8.43%
CC(Oc1cc(-c2ccccc2)cc2ccccc12)C(=O)N1CCOCC1 (stereo not given),"inconclusive [inhibitor, single point]",
O=C(C1CC1)N1CCc2cc(Br)cc(S(=O)(=O)NCc3ccco3)c21,active: 2 µM,
O=C(N1CCCCC1)N1CCN(c2ccc(Cl)cc2)CC1,active: 7.94 µM,
CCOC(=O)CCN1C(=O)[C@@H]2[C@H]3C(=CC[C@H]2C1=O)C(=O)[C@H]1O[C@H]1[C@H]3O,"inconclusive [inhibitor, partial curve]",
CC(C)(C)CN1CCNC(=O)C1CC(=O)N1CCOc2ccccc2C1 (stereo not given),"inconclusive [inhibitor, single point]",
CCN(CC(=O)NCc1ccc(F)cc1)C(=O)/C=C/c1ccco1,"inconclusive [inhibitor, single point]",
Cc1ccc(NC(=O)COC(=O)c2ccc([N+](=O)[O-])s2)c(C)c1,"inconclusive [inhibitor, single point]",
Cc1cn(C2OC(COC(=O)c3ccccc3)C(O)C2Cl)c(=O)[nH]c1=O (stereo not given),"inconclusive [inhibitor, single point]",
CCOC(=O)c1c(N)sc(C(=O)N2CCCCCC2)c1C,"inconclusive [inhibitor, single point]",
Cc1noc(C)c1S(=O)(=O)N(C)CC(=O)Nc1ccc(F)cc1,"inconclusive [inhibitor, partial curve]",

Structure (SMILES),Potency,"activity, negative = inhibition"
CN(C)c1ccc(C(=O)N2CC(=O)N(CCc3ccccc3)C(=O)C2)cc1,active: 6.31 µM,
COc1cc(C(=O)N/N=C/C2CC=CCC2)cc(OC)c1OC (stereo not given),active: 11.2 µM,
Cc1cc(OC(=O)C(C)(C)C)c([N+](=O)[O-])c(=O)[nH]1,,inactive: 6.55%
Nc1cc(S(=O)(=O)N2CCCCC2)ccc1Oc1ccccc1,,inactive: 12.3%
Cc1ccc(N=Nc2c(=O)[nH]n3c(C)cc(C)nc23)cc1,,inactive: -9.31%
O=C(NCc1ccco1)C(=O)c1c[nH]c2ccccc12,"inconclusive [inhibitor, single point]",
CC(C)n1nnnc1SCC(=O)c1ccc2c(c1)OCCO2,"inconclusive [inhibitor, partial curve]",
CN(C)S(=O)(=O)c1ccc(N2CCCC2)c(C(=O)Nc2nc(-c3ccc(F)cc3)cs2)c1,"inconclusive [inhibitor, single point]",
CCN1C(=O)/C(=C\N2CCN(C(=O)c3ccco3)CC2)SC1=S,"inconclusive [inhibitor, partial curve]",
Cc1nc(NCc2cccnc2)c2c3c(sc2n1)CCCC3,,inactive: -10.5%
O=C1CSC(c2cn(-c3ccccc3)nc2-c2cc3ccccc3oc2=O)N1Cc1ccco1 (stereo not given),"inconclusive [inhibitor, partial curve]",
COc1cccc(C2(c3cccc(OC)c3)CC2C(=O)Nc2ccccc2Cl)c1 (stereo not given),,inactive: -7.49%
Cc1cc(C)cc(C(=O)NC(=S)Nc2ccc3[nH]c(=O)[nH]c3c2)c1,"inconclusive [inhibitor, single point]",
CC(C)CCn1c(O)c(N=NC(=O)c2ccco2)c2ccccc21,,inactive: 2.04%
N#CCCN/N=C(\Cc1nc2ccccc2[nH]1)c1ccccc1,"inconclusive [inhibitor, single point]",
Cc1c(C(=O)NN)[nH]c2ccc([N+](=O)[O-])cc12,active: 7.94 µM,
CCOc1ccc(N=Cc2c(C)[nH]n(-c3nc4ccccc4[nH]3)c2=O)cc1,"inconclusive [inhibitor, single point]",
CN(CC(=O)Nc1ccccc1-c1ccccc1)Cc1ccccc1Cl,"inconclusive [inhibitor, single point]",
CC(C)(C)C(=O)/C(C#N)=c1\s/c(=C\c2ccncc2)c(=O)n1CCCN1CCOCC1,"inconclusive [inhibitor, single point]",
O=C(Nc1ccc(-c2noc(-c3ccccc3F)n2)cc1)c1cccs1,"inconclusive [inhibitor, single point]",
Cc1ccc2nc(NCCCN3CCOCC3)c(C=NCCCN3CCOCC3)c(=O)n2c1,"inconclusive [inhibitor, single point]",
COC(=O)[C@@H]1[C@@H](O)[C@]2(O)c3ccccc3O[C@]2(c2ccccc2)[C@H]1c1ccccc1,,inactive: 10.9% [at 13.5 µM]
